Patent US20230143604A1, “QW DOSING OF GIP RECEPTOR AGONIST PEPTIDE COMPOUNDS AND USES THEREOF” (TAKEDA PHARMACEUTICAL COMPANY LIMITED, priority 2020, published 2023)
Read-outs that look alike come from different tables or passages of the source. At least one peptide structure holds a part that was inferred or is arguable (an end, a ring closure or a residue). Starred links: 1 amine or outer side, 2 acyl side, 3 side chain; linkers in the order of their positions; H or OH if unused. Non-standard residues stand in square brackets, D forms with d. Residues, ends and D or L forms follow the SMILES beside them. Groups on a side chain read outwards from the residue. *: point of attachment. C18 diacid = O=C(O)CCCCCCCCCCCCCCCCC(=O)*; C17 diacid = O=C(O)CCCCCCCCCCCCCCCC(=O)*; γGlu = O=C(O)[C@H](CCC(=O)[*:2])N[*:1]; NMeY = CN[C@@H](Cc1ccc(O)cc1)C(=O)O; AEEA = NCCOCCOCC(=O)O; Aib = CC(C)(N)C(=O)O

Legend:
Format in all cases: in vivo
C57BL/6J mice = assay: Oral glucose tolerance test (OGTT); conditions: 3 nmol/kg s.c., 24 hours before glucose loading
In short: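 Peptide or vehicle given s.c. at 0.1, 0.3, 3 or 10 nmol/kg (peptide-dependent), 24 h before oral 50% dextrose at 5 ml/kg unless stated otherwise. Blood glucose read at 0, 15, 30 and 60 min. % inhibition = (1−(AUC cpd−AUC naïve)/(AUC veh−AUC naïve))×100.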

female beagle dogs = assay: PYY-1119-induced vomiting in dogs; conditions: 72 hours post-dose (lower line)
Dogs = test system: Dogs
Description: Dogs are transferred to an observation cage (700 mm W×700 mm D×700 mm H [W×D×H], without food) on 1 day before each apomorphine challenge. The dogs are weighed by using an electronic balance then test peptide compounds and vehicle will be administrated via the subcutaneous route. Apomorphine is challenged at 8 hr after the administration and emetic events will be monitored for 1 h by video recording. The second apomorphine challenge will be 72 hr after the administration and emetic events will be recorded by the same protocol. Emesis symptoms are continuously recorded using a video camera and stored on a blue ray disc. Observation of symptoms include retching (a rhythmic contraction of the abdomen) and vomiting (vomiting behavior, including the elimination of vomitus or similar behavior). Besides, the combination of retching and vomiting is defined as emesis, and the number of episodes, latency (time elapsed from morphine administration until the onset of the first emesis symptom), duration (time elapsed between the onset of the first and final episodes of emesis), and frequency (number of animals showing emesis/number of experimental animals) of each of these symptoms is calculated. The latency in cases where emesis symptoms are not noted is taken as the maximum value (1 h for apomorphine challenge) at the end of observation. When the duration of the emesis symptoms is less than 1 min, the duration is recorded, for convenience, as 1 min.

[1] = after 8 hrs (upper), 10 nmol/kg s.c.
[2] = after 72 hours (lower), 10 nmol/kg s.c.

Row | Compound | Oral Glucose Tolerance Test Percent decrease in blood glucose AUC (%) over 60 mins (C57BL/6J mice) | Inhibition (%) of PYY-1119-induced emetic event (female beagle dogs; 10 nmol/kg s.c.) | % inhibition of emetic events at doses (nmol/kg) shown in dog apomorphine model (Dogs; [1]) | % inhibition of emetic events at doses (nmol/kg) shown in dog apomorphine model (Dogs; [2]) | % inhibition of emetic events at doses (nmol/kg) shown in dog apomorphine model (Dogs; after 8 hrs (upper), 30 nmol/kg s.c.) | % inhibition of emetic events at doses (nmol/kg) shown in dog apomorphine model (Dogs; after 72 hours (lower), 30 nmol/kg s.c.) | Inhibition (%) of PYY-1119-induced emetic event (female beagle dogs; 3 nmol/kg s.c.)
1 | CC[C@H](C)[C@H](NC(=O)[C@H](Cc1ccccc1)NC(=O)[C@@H](NC(=O)CNC(=O)[C@H](CCC(=O)O)NC(=O)C(C)(C)NC(=O)[C@H](Cc1ccc(O)cc1)NC)[C@@H](C)O)C(=O)N[C@@H](CO)C(=O)N[C@@H](CC(=O)O)C(=O)N[C@@H](Cc1ccc(O)cc1)C(=O)N[C@@H](CO)C(=O)N[C@H](C(=O)NC(C)(C)C(=O)N[C@@H](CC(C)C)C(=O)N[C@@H](CC(=O)O)C(=O)N[C@@H](CCCNC(=N)N)C(=O)N[C@@H](CCCCNC(=O)COCCOCCNC(=O)COCCOCCNC(=O)CC[C@H](NC(=O)CC[C@H](NC(=O)CCCCCCCCCCCCCCCC(=O)O)C(=O)O)C(=O)O)C(=O)N[C@@H](C)C(=O)N[C@@H](CCC(N)=O)C(=O)NC(C)(C)C(=O)N[C@@H](CC(N)=O)C(=O)N[C@@H](Cc1ccccc1)C(=O)N[C@H](C(=O)N[C@@H](CC(N)=O)C(=O)N[C@@H](Cc1c[nH]c2ccccc12)C(=O)N[C@@H](CC(C)C)C(=O)N[C@@H](CC(C)C)C(=O)N[C@@H](C)C(=O)N[C@@H](CCC(N)=O)C(=O)N[C@@H](CCCNC(=N)N)C(=O)N1CCC[C@H]1C(=O)N[C@@H](CO)C(=O)N[C@@H](CO)C(=O)NCC(=O)N[C@@H](C)C(=O)N1CCC[C@H]1C(=O)N1CCC[C@H]1C(=O)N1CCC[C@H]1C(=O)N[C@@H](CO)C(N)=O)C(C)C)[C@@H](C)CC [Compound 15] (H-[NMeY][Aib]EGTFISDYSI[Aib]LDRK([AEEA-AEEA-γGlu-γGlu-C17 diacid])AQ[Aib]NFVNWLLAQRPSSGAPPPS-NH2) | 34% (3 nmol/kg) | 100% (10 nmol/kg) | 47% (10 nmol/kg) | 48% (10 nmol/kg) |  |  | 
2 | CC[C@H](C)[C@H](NC(=O)[C@H](Cc1ccccc1)NC(=O)[C@@H](NC(=O)CNC(=O)[C@H](CCC(=O)O)NC(=O)C(C)(C)NC(=O)[C@H](Cc1ccc(O)cc1)NC)[C@@H](C)O)C(=O)N[C@@H](CO)C(=O)N[C@@H](CC(=O)O)C(=O)N[C@@H](Cc1ccc(O)cc1)C(=O)N[C@@H](CO)C(=O)N[C@H](C(=O)NC(C)(C)C(=O)N[C@@H](CC(C)C)C(=O)N[C@@H](CC(=O)O)C(=O)N[C@@H](CCCNC(=N)N)C(=O)NC(C)(C)C(=O)N[C@@H](C)C(=O)N[C@@H](CCC(N)=O)C(=O)NC(C)(C)C(=O)N[C@@H](CCCCNC(=O)COCCOCCNC(=O)COCCOCCNC(=O)CC[C@H](NC(=O)CC[C@H](NC(=O)CCCCCCCCCCCCCCCCC(=O)O)C(=O)O)C(=O)O)C(=O)N[C@@H](Cc1ccccc1)C(=O)N[C@H](C(=O)N[C@@H](CC(N)=O)C(=O)N[C@@H](Cc1c[nH]c2ccccc12)C(=O)N[C@@H](CC(C)C)C(=O)N[C@@H](CC(C)C)C(=O)N[C@@H](C)C(=O)N[C@@H](CCC(N)=O)C(=O)N[C@@H](CO)C(=O)N1CCC[C@H]1C(=O)NCC(=O)O)C(C)C)[C@@H](C)CC [Compound 85] (H-[NMeY][Aib]EGTFISDYSI[Aib]LDR[Aib]AQ[Aib]K([AEEA-AEEA-γGlu-γGlu-C18 diacid])FVNWLLAQSPG-OH) | 47% (3 nmol/kg) |  | 69% (10 nmol/kg) | 78% (10 nmol/kg) |  |  | 
3 | CC[C@H](C)[C@H](NC(=O)[C@H](Cc1ccccc1)NC(=O)[C@@H](NC(=O)CNC(=O)[C@H](CCC(=O)O)NC(=O)C(C)(C)NC(=O)[C@H](Cc1ccc(O)cc1)NC)[C@@H](C)O)C(=O)N[C@@H](CO)C(=O)N[C@@H](CC(=O)O)C(=O)N[C@@H](Cc1ccc(O)cc1)C(=O)N[C@@H](CO)C(=O)N[C@H](C(=O)NC(C)(C)C(=O)N[C@@H](CC(C)C)C(=O)N[C@@H](CC(=O)O)C(=O)N[C@@H](CCCNC(=N)N)C(=O)NC(C)(C)C(=O)N[C@@H](C)C(=O)N[C@@H](CCC(N)=O)C(=O)NC(C)(C)C(=O)N[C@@H](CC(N)=O)C(=O)N[C@@H](Cc1ccccc1)C(=O)N[C@H](C(=O)N[C@@H](CC(N)=O)C(=O)N[C@@H](Cc1c[nH]c2ccccc12)C(=O)N[C@@H](CC(C)C)C(=O)N[C@@H](CC(C)C)C(=O)N[C@@H](C)C(=O)N[C@@H](CCC(N)=O)C(=O)N[C@@H](CCCCNC(=O)COCCOCCNC(=O)COCCOCCNC(=O)CC[C@H](NC(=O)CC[C@H](NC(=O)CCCCCCCCCCCCCCCC(=O)O)C(=O)O)C(=O)O)C(=O)N1CCC[C@H]1C(=O)N[C@@H](CO)C(=O)N[C@@H](CO)C(=O)NCC(=O)N[C@@H](C)C(=O)N1CCC[C@H]1C(=O)N1CCC[C@H]1C(=O)N1CCC[C@H]1C(=O)N[C@@H](CO)C(N)=O)C(C)C)[C@@H](C)CC [Compound 16] (H-[NMeY][Aib]EGTFISDYSI[Aib]LDR[Aib]AQ[Aib]NFVNWLLAQK([AEEA-AEEA-γGlu-γGlu-C17 diacid])PSSGAPPPS-NH2) | 40% (3 nmol/kg) | 100% (10 nmol/kg) | 63% (10 nmol/kg) | 68% (10 nmol/kg) |  |  | 
4 | CC[C@H](C)[C@H](NC(=O)[C@H](CO)NC(=O)[C@H](Cc1ccc(O)cc1)NC(=O)[C@H](CC(=O)O)NC(=O)[C@H](CO)NC(=O)[C@@H](NC(=O)[C@H](Cc1ccccc1)NC(=O)[C@@H](NC(=O)CNC(=O)[C@H](CCC(=O)O)NC(=O)C(C)(C)NC(=O)[C@H](Cc1ccc(O)cc1)NC)[C@@H](C)O)[C@@H](C)CC)C(=O)N[C@@H](C)C(=O)N[C@@H](CC(C)C)C(=O)N[C@@H](CC(=O)O)C(=O)N[C@@H](CCCNC(=N)N)C(=O)NC(C)(C)C(=O)N[C@@H](C)C(=O)N[C@@H](CCC(N)=O)C(=O)NC(C)(C)C(=O)N[C@@H](CCCCNC(=O)COCCOCCNC(=O)COCCOCCNC(=O)CC[C@H](NC(=O)CC[C@H](NC(=O)CCCCCCCCCCCCCCCC(=O)O)C(=O)O)C(=O)O)C(=O)N[C@@H](Cc1ccccc1)C(=O)N[C@H](C(=O)N[C@@H](CC(N)=O)C(=O)N[C@@H](Cc1c[nH]c2ccccc12)C(=O)N[C@@H](CC(C)C)C(=O)N[C@@H](CC(C)C)C(=O)N[C@@H](C)C(=O)N[C@@H](CCC(N)=O)C(=O)N[C@@H](CCCNC(=N)N)C(=O)NCC(=O)O)C(C)C [Compound 36] (H-[NMeY][Aib]EGTFISDYSIALDR[Aib]AQ[Aib]K([AEEA-AEEA-γGlu-γGlu-C17 diacid])FVNWLLAQRG-OH) | 28% (3 nmol/kg) |  |  |  | 64% (30 nmol/kg) | 72% (30 nmol/kg) | 
5 | CC[C@H](C)[C@H](NC(=O)[C@H](Cc1ccccc1)NC(=O)[C@@H](NC(=O)CNC(=O)[C@H](CCC(=O)O)NC(=O)C(C)(C)NC(=O)[C@H](Cc1ccc(O)cc1)NC)[C@@H](C)O)C(=O)N[C@@H](CO)C(=O)N[C@@H](CC(=O)O)C(=O)N[C@@H](Cc1ccc(O)cc1)C(=O)N[C@@H](CO)C(=O)N[C@H](C(=O)NC(C)(C)C(=O)N[C@@H](CC(C)C)C(=O)N[C@@H](CC(=O)O)C(=O)N[C@@H](CCCNC(=N)N)C(=O)NC(C)(C)C(=O)N[C@@H](C)C(=O)N[C@@H](CCC(N)=O)C(=O)NC(C)(C)C(=O)N[C@@H](CCCCNC(=O)COCCOCCNC(=O)COCCOCCNC(=O)CC[C@H](NC(=O)CC[C@H](NC(=O)CCCCCCCCCCCCCCCC(=O)O)C(=O)O)C(=O)O)C(=O)N[C@@H](Cc1ccccc1)C(=O)N[C@H](C(=O)N[C@@H](CC(N)=O)C(=O)N[C@@H](Cc1c[nH]c2ccccc12)C(=O)N[C@@H](CC(C)C)C(=O)N[C@@H](CC(C)C)C(=O)N[C@@H](C)C(=O)N[C@@H](CCC(N)=O)C(=O)N[C@@H](CCCNC(=N)N)C(=O)N1CCC[C@H]1C(=O)N[C@@H](CO)C(=O)N[C@@H](CO)C(=O)NCC(=O)N[C@@H](C)C(=O)N1CCC[C@H]1C(=O)N1CCC[C@H]1C(=O)N1CCC[C@H]1C(=O)N[C@@H](CO)C(N)=O)C(C)C)[C@@H](C)CC [Compound 13] (H-[NMeY][Aib]EGTFISDYSI[Aib]LDR[Aib]AQ[Aib]K([AEEA-AEEA-γGlu-γGlu-C17 diacid])FVNWLLAQRPSSGAPPPS-NH2) | 55% (3 nmol/kg) |  | 47% (10 nmol/kg) | 48% (10 nmol/kg) |  |  | 100% (3 nmol/kg)
